Sequences with one replicate were seen in a single cluster, so their values are uncertain.
System: ATP
Experiment: switch fluorescence ratio, 500 uM ATP over buffer (Cy3 cluster intensity, sum of 5 cycles each) (fold (ratio)); higher = stronger signal-on switching upon ATP binding; sequences stand for … in TCGTCGGCAGCGTCAGATGTGTATAAGAGACAGTTTTTTTTTTTTTTTTTTTTTTTTT…TC
Details: aptamer strand: ATP DNA aptamer (quencher-CACCTGGGGGAGTATTGCGGAGGAAGG + anchor), 100 nM annealed; ATP concentration: 500 uM; one replicate
Procedure, shortened: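 Between each of five buffer/ATP cycles, the flow-cell was stripped with NaOH and re-annealed. Each cycle imaged Cy3-labelled switching-strand clusters, annealed to 100 nM quencher-labelled ATP aptamer on a modified Illumina MiSeq flow-cell, first in selection buffer and then after 15 min with 500 uM ATP at 22 °C. The fluorescence ratio is summed target-cycle over summed buffer-cycle Cy3 intensity per cluster, averaged per switch-domain sequence, with clusters outside 100-1000 RFU excluded.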
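Note: ATP exposure 15 min at 22 °C before imaging.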

| Sequence | switch fluorescence ratio |
| --- | --- |
| CCTGTATGCG | 1.08 |
| AATTGCACGT | 1.07 |
| AAAACCAATC | 1.11 |
| TGACTCATGA | 0.999 |
| CTCTAGCGAT | 3.87 |
| AGTTCCGAGA | 1.06 |
| AAGGTGGGTC | 0.973 |
| GATCAGGGGC | 1.07 |
| ATTCGCGCGT | 1.01 |
| GTTTTTGGCC | 1.06 |
| TCACATACTG | 1.2 |
| TCTGGGGACT | 0.968 |
| GCTAGCTTCT | 1.02 |
| ACAAAAGTAG | 1.03 |
| GTGATTACTT | 1 |
| ATAAGGTGGG | 0.994 |
| CGCTTTCTAT | 1 |
| TCATTACATG | 1.02 |
| CCTTGGCGGC | 1.34 |
| CCTTGATCTA | 0.964 |
| AAACGGGGGA | 1.03 |
| GGGTAGCTAC | 0.998 |
| ATGAGGAACT | 0.967 |
| GTTGTTTGCT | 1 |
| AGCCAATAG | 3.59 |
| CTTTAGGCCT | 1.08 |

| Sequence | switch fluorescence ratio |
| --- | --- |
| AACAGCAGTA | 1.07 |
| AGGATTTCTT | 1.04 |
| GTAAGGGTTC | 0.952 |
| TACGGCTTGA | 1.01 |
| AAGCACTTAT | 1.18 |
| TGTACCGCCA | 1.17 |
| CACTAGGCTA | 1.02 |
| GAGGGAATAG | 1.53 |
| AAATGTAGGT | 0.963 |
| AGTTCACCCT | 1.04 |
| CCGTAGAGAT | 3.24 |
| GTTGATTATC | 1 |
| AATCTCGCTT | 1.02 |
| TACAAGGCAC | 1.07 |
| GCTCGTAAGC | 1.05 |
| ACCGTGTCAT | 0.994 |
| CCTAAGGTCT | 1.05 |
| GAGTGGCGCT | 1.03 |
| TCTTTTGGCC | 1.03 |
| CCGGACCTGT | 0.985 |
| AGTTTGGTG | 0.96 |
| TAAGCCCAGG | 2.78 |
| ACGTTTAGAG | 1.01 |
| GAAATCCACT | 0.987 |
| TTCAAGAGCG | 1.03 |
| CAGATAATGG | 0.982 |

| Sequence | switch fluorescence ratio |
| --- | --- |
| CACCAAATTA | 1.02 |
| GTAGCAACGT | 1.2 |
| GGTCAGGCCA | 0.992 |
| GCACAATCCC | 1.26 |
| TCCTTTTTGA | 0.997 |
| GCCAACGACT | 1.05 |
| TCCAAGTCCG | 1.21 |
| TTAAACGTTC | 1.16 |
| CGACTAGGCT | 1.09 |
| CCTGACACGA | 1.21 |
| ATTCTGGTTC | 0.998 |
| ACAGATGGGT | 1.03 |
| TGAGGGACG | 0.988 |
| CCTTAAGAGG | 1.02 |
| GGTGGCGTTG | 0.982 |
| GATGTGCGGT | 1.08 |
| ATCGTTGGGG | 0.958 |
| CTATGGAAAG | 1.03 |
| ACAGGCTAT | 0.998 |
| GTAATACTGT | 1.17 |
| TTGGATATCG | 0.995 |
| AAAACTCGCT | 1.06 |
| GGTTTACGCA | 1.04 |
| TCAAGTTGCC | 1 |

— the supplement of paper PMC10126150
